We go through 83 compounds from ChEMBL document CHEMBL4888484, “Replenishing the malaria drug discovery pipeline: Screening and hit evaluation of the MMV Hit Generation Library 1 (HGL1) against asexual blood stage Plasmodium falciparum ,using a nano luciferase reporter read-out” (2022).

The term % Inhibition denotes the relative decrease from the control value, in per cent.

Hit rate of the full screen: of about 150,000 compounds, about 540 (0.36%) showed an effect of 50% or more. This is one part of the list.

This assay relates to Plasmodium falciparum. Nature of the assay: Primary screen in NF54 nanoGlo assay, in single point, at 2uM, 72h; a lower Z score goes with more inhibition. In kind it is functional, Erythrocyte. The note with it: timepoint 72 hour.
Regarding `O=C1CCN(Cc2cnc3ccccc3c2)[C@H]2CCCN12`, the “% Inhibition” value is 18% and the Z score is -2.23.
`Cc1nc2c(c(N3C[C@@H]4C[C@@H](C3)c3cccc(=O)n3C4)n1)CNC2`: the “% Inhibition” value is -7% and the Z score was 0.84.
The like results for `COCCn1nnnc1[C@]1(N2CCOCC2)CCCN(C(=O)Cc2ccccc2Cl)C1` were, in that order, 7% and -1.25.
For `C[C@@H](Cc1cnccn1)N(C)Cc1ccc(Cl)o1` the same measures were -5% and 0.87.
As to `CCc1nccc(CN2CCC[C@H](C(=O)c3ccccn3)C2)n1`, the “% Inhibition” value was -13% and the Z score is 1.32.
For `CC(C)NC(=O)OC[C@H]1C[C@@H]2CCN1C[C@@H]2c1cc(C2CCCC2)nc(-c2ccncc2)n1` the same measures were 32% and -3.72.
The like results for `CN(Cc1ccccc1)C[C@H]1C[N@@]2CC[C@H]1C[C@@H]2CNC(=O)c1ccccc1` were, in that order, 11% and -1.99.
The like results for `O=C1NC2(CCNCC2)N=C1c1cccs1` were, in that order, -15% and 1.8.
`Cc1n[nH]c(C)c1CC(=O)N1CCN(CC(=O)C2CC2)CC1`: the “% Inhibition” value is on record as -10% and the Z score was 1.03.
For `O=c1oc2ccccc2n1CN1CCC[C@H](c2nc3ccccc3s2)C1` the same measures were 0% and 0.02.
For `O=C(Cc1c[nH]c2ccccc12)N1CCN(Cc2nnn3c2CO[C@H](c2cccc(F)c2)C3)CC1` the same measures were -6% and 0.79.
As for `O=c1cccc2n1C[C@@H]1C[C@H]2CN(O)C1`, the “% Inhibition” value is listed as -9% and the Z score came to 0.81.
The like results for `O=C(NC1CCN2CCCCC12)c1cc(Cl)c[nH]1` (stereo unspecified) were, in that order, 8% and -1.17.
For `C[C@H](O)CN1CCN(C(=O)Cc2ccoc2)CC1` the same measures were -13% and 1.41.
The like results for `CC(=O)Nc1ccc(Cc2nc(-c3ccc4c(c3)oc(=O)n4C(C)C)no2)cc1` were, in that order, -10% and 0.99.
Consider `Nc1nccc(N2C[C@H](c3ccccc3)[C@@H]3[C@H]2C2CCN3CC2)n1`, for which the “% Inhibition” value was determined as 3% and the Z score was -0.48.
Consider `CCN1C[C@]2(OC(=O)c3ccccc3N)CC[C@H](OC)[C@]34C1[C@H](C[C@H]23)[C@@]1(O)C[C@H](OC)[C@H]2C[C@@H]4[C@]1(O)[C@H]2OC`, for which the “% Inhibition” value is given as -2% and the Z score stood at 0.2.
For `CC(C)c1nc(C2CCN(C(=O)c3cccc4[nH]c(=O)oc34)CC2)no1` the same measures were 6% and -1.02.
For `O=C(NCc1ccccc1)[C@H]1CN2CC[C@H]1C[C@@H]2Cn1cc(CO)nn1` the same measures were 31% and -3.52.
For `Cc1ccc(OCc2c(C(=O)N[C@@H](C)c3nccs3)c(=O)cc(C)n2CCN2CCOCC2)cc1` the same measures were -9% and 0.99.
Regarding `Cc1cccc(CN(Cc2ccccc2)C(=O)N[C@H]2CN3CCC2CC3)n1`, the “% Inhibition” value is -5% and the Z score amounted to 0.58.
For `CC(C)(C)OC(=O)NC1CCC2CN(Cc3cccnc3)CC21` (stereo unspecified) the same measures were -6% and 1.11.
As to `CN1C2CCC1CC(Oc1ncc(Br)cn1)C2` (stereo unspecified), the “% Inhibition” value is listed as -6% and the Z score is 0.87.
As to `CCC(CC)c1cc([C@H]2CN3CC[C@H]2C[C@@H]3CNC(=O)CCCC(=O)O)nc(-c2ccncc2)n1`, the “% Inhibition” value came to 3% and the Z score is listed as -0.52.
For `C[C@H](NCCc1cccc(F)c1)c1cn2ccccc2n1` the same measures were -10% and 1.14.
With `Cc1nc(CC(=O)N(CCN2CCCC2)Cc2ccccc2)cs1`, the “% Inhibition” value came to 3% and the Z score is -0.39.
For `Cc1cccc(CN(C(=O)c2ccn(C(C)C)n2)C2CCCCC2)c1` the same measures were -12% and 1.3.
As to `O=C(NC1CC1)[C@H](Nc1ccc2oc(=O)[nH]c2c1)c1ccccc1`, the “% Inhibition” value was found to be 1% and the Z score is on record as -0.13.
For the compound `Cc1cc([C@H](C)NCC(=O)N2CCC3(CC2)OCCO3)c(C)s1`, the “% Inhibition” value is reported as -12% and the Z score turned out to be 1.41.
For `COC1CCN(C2CN(C(=O)COc3ccc(Cl)cc3)C2)CC1` the same measures were -4% and 0.84.
For `CCNC(=O)N1C[C@@H](c2cc(F)cc(F)c2)[C@@H]2[C@H]1C1CCN2CC1` the same measures were -3% and 0.41.
The like results for `O=C(NCc1nc(=O)o[nH]1)[C@H]1C[C@@H]1c1ccc(F)cc1F` were, in that order, 4% and -0.56.
Regarding `COc1ccccc1[C@@H]1CN(Cc2nnc(C)s2)[C@@H]2C3CCN(CC3)[C@@H]21`, the “% Inhibition” value is -15% and the Z score is on record as 1.49.
As for `CCS(=O)(=O)N1C[C@@H](c2ccc(F)cc2)[C@@H]2[C@H]1C1CCN2CC1`, the “% Inhibition” value stood at 1% and the Z score is -0.13.
For `CCN1CCOC[C@H]1C(=O)n1nc2cc(OC)ccc2c1N` the same measures were -7% and 1.24.
The like results for `CCn1c(=O)oc2ccc(C(=O)NCCCc3ccccc3)cc21` were, in that order, 3% and -0.36.
As to `C[C@@H](C(N)=O)N1CCOC2(CCCCCC2)C1`, the “% Inhibition” value was -15% and the Z score stood at 1.91.
For `CN(C(=O)Cc1cccnc1)[C@H]1CCCN(CCCc2ccccc2)C1` the same measures were -9% and 1.45.
The like results for `COc1ccc2c(-c3c(C#N)c(N)nc4c3[C@@H]3CC[C@H](C4)N3C)n[nH]c2c1` were, in that order, 7% and -0.86.
The like results for `COC(=O)[C@H]1[C@@H](C(=O)NC2CC(=O)N(C)C2)[C@@H]2CC[C@@H]1N2C(=O)OC(C)(C)C` (stereo partly specified) were, in that order, -10% and 1.51.
For `O=C(CCc1nc(C2=CCN(Cc3ccc(Cl)cc3)CC2)no1)N1CCc2ccccc2C1`, the “% Inhibition” value is recorded as -9% and the Z score was 1.2.
In the case of `OC(c1ccccc1)(c1ccccc1)[C@H]1C[N+]2(Cc3ccccc3)CCC1CC2`, the “% Inhibition” value came out at 11% and the Z score is -1.25.
The like results for `Cc1cc(Cl)c(C(=O)N2CCC[C@H](c3n[nH]c(=O)o3)C2)cc1C` were, in that order, -5% and 0.9.
The like results for `CC(C)CCOc1ccc(CCN)cc1` were, in that order, 3% and -0.48.
For `O=C(Nc1nnc(N2CC3CC(C2)c2cccc(=O)n2C3)s1)C(F)(F)F` (stereo unspecified), the “% Inhibition” value was 34% and the Z score is -3.88.
For `O=S1(=O)N[C@@H]2CN(CC3CC3)C[C@@H]2Oc2ncccc21` the same measures were -11% and 1.59.
For the compound `NCCc1ccc(F)c(Br)c1`, the “% Inhibition” value is recorded as -13% and the Z score is listed as 1.15.
For `CC(C)CC[C@H](C)NC(=O)c1cccc2oc(=O)[nH]c12` the same measures were -6% and 0.57.
For `CO[C@H]1C[C@H]2CC[C@@H](C1)N2CCCOc1ccc(F)cc1` the same measures were 7% and -1.23.
Regarding `CC(C)CN1CC[C@H](C(=O)N2CCC3(CC2)OCC(C)(C)CO3)C1`, the “% Inhibition” value is reported as -6% and the Z score is listed as 0.57.
With `CCOc1ccc2nc(CN3CCCN4CCC[C@H]4C3)ccc2c1`, the “% Inhibition” value was -12% and the Z score is listed as 1.45.
As for `Cc1ncc(CN2CC3(CCCOC3)C2)s1`, the “% Inhibition” value is -2% and the Z score worked out at 0.33.
As to `FC(F)(F)C1CCCC(NC2CCOC(C3CC3)C2)C1` (stereo unspecified), the “% Inhibition” value is -2% and the Z score stood at 0.3.
The like results for `CC(NCc1nnnn1C(C)C)C(C)c1ccccc1` (stereo unspecified) were, in that order, 7% and -1.
For `O=c1[nH]c2cc(S(=O)(=O)N3CC[C@H](Oc4ncc(F)cn4)C3)ccc2o1` the same measures were -2% and 0.4.
The like results for `CC(C)=CCN1C[C@@H]2CC[C@H]1CN(Cc1cc(=O)[nH]c(=O)[nH]1)C2` were, in that order, 5% and -0.64.
Turning to `COC(C)(C(=O)N1CCCC(c2n[nH]c(=O)o2)C1)c1ccccc1F` (stereo unspecified), the “% Inhibition” value is recorded as -5% and the Z score was 0.74.
The like results for `Cc1nc(CN2CCC[C@H](N(C)C(=O)Cc3cccc(OC(C)C)c3)C2)no1` were, in that order, -7% and 1.01.
The like results for `O=C(CC1CCC1)N1CCN([C@H]2CN3CCC2CC3)CC1` were, in that order, 4% and -0.72.
For `Cc1ccncc1CN1CCC(CF)CC1` the same measures were -1% and 0.25.
With `O=C(Nc1ccccc1Cl)N1C2CCC1c1cn[nH]c1C2` (stereo unspecified), the “% Inhibition” value came out at 33% and the Z score was -3.78.
The like results for `C[C@@H](Cc1cccc(Cl)c1)NC(=O)CCN1CCOC1=O` were, in that order, -3% and 0.34.
The like results for `Cc1cc(-c2cccc3c2CCNC3)ccc1O` were, in that order, -8% and 1.58.
The like results for `Cc1noc(C)c1C(=O)N1C[C@@H]2CC[C@H]1CN(Cc1cscn1)C2` were, in that order, -11% and 1.84.
As for `Cc1ccsc1CN1C[C@@H]2OC(=O)N(Cc3ccccn3)[C@@H]2C1`, the “% Inhibition” value came to 4% and the Z score was -0.54.
In the case of `Cc1cccc(-n2nnnc2C2(NC(C)C)CCCCC2)c1`, the “% Inhibition” value is recorded as 1% and the Z score is recorded as -0.12.
For `COCCn1cncc1CN1[C@@H]2CC[C@H]1C[C@@H](c1ccc(F)c(C)c1)C2` the same measures were 0% and -0.02.
Turning to `O=C(c1ccc(COc2ccc(Br)cc2)o1)N1CCC2(CC1)OCCO2`, the “% Inhibition” value is reported as -11% and the Z score is 1.1.
`COc1ncc(CN2CCC3(CCCC3)C2)cn1`: the “% Inhibition” value is recorded as -2% and the Z score was 0.24.
The like results for `CCCN1CCCN(C(=O)Cc2c(C)nn(C)c2C)CC1` were, in that order, -9% and 0.87.
The like results for `Oc1ccccc1C[C@H]1CC2CCN1CC2` were, in that order, -1% and 0.12.
The like results for `O=C(CCc1nnc2ccc(N3CCCC3)nn12)N1CCC2(CC1)OCCO2` were, in that order, -21% and 2.02.
Consider `Cn1c(N2CCN3CCCC[C@H]3C2)c(C#N)c(=O)n(C)c1=O`, for which the “% Inhibition” value is -8% and the Z score is given as 1.18.
The like results for `Cc1ccccc1C[C@H](C)NC(=O)C(C)(C)NC(=O)C(F)(F)F` were, in that order, -4% and 0.33.
For the compound `CC(Cc1ccc(F)cc1Cl)NC(C)c1ncn(C)n1` (stereo unspecified), the “% Inhibition” value is -8% and the Z score came to 1.07.
As to `CCn1cc(C(=O)NCc2ccccc2C)c2cccnc21`, the “% Inhibition” value is -3% and the Z score is given as 0.31.
The like results for `O=C(Nc1nccs1)C1CC2CCC1N2c1cnc2ccccc2n1` (stereo unspecified) were, in that order, -10% and 1.33.
The like results for `C[C@@H](Cc1ccccc1F)NCCn1ccnc1` were, in that order, -3% and 0.34.
The like results for `COCc1n[nH]c([C@@H](N)Cc2ccccc2)n1` were, in that order, 1% and -0.1.
As for `Cc1ccc(Cn2cccc2C(=O)C(=O)N2CCC3(CC2)OCCO3)cc1`, the “% Inhibition” value is given as -12% and the Z score is listed as 1.11.
The like results for `Fc1cc(CNCC(F)F)ccc1Cl` were, in that order, -7% and 0.98.
The like results for `CC[C@](NC(=O)c1ccn(C(C)C)n1)(C(=O)OC)c1ccccc1` were, in that order, 4% and -0.51.
In the case of `CN(C)c1ccc(C(=O)NC[C@H]2C[C@@H]3CC[N@]2C[C@@H]3CN2CCN(c3ccccn3)CC2)cc1`, the “% Inhibition” value was 33% and the Z score is -3.71.
